Results taken from the supplement of paper PMC10126150.
Values marked as one replicate rest on one cluster of the flow cell; about a third of the high ones do not repeat.

System: ATP
Test: switch fluorescence ratio, 500 uM ATP over buffer (Cy3 cluster intensity, sum of 5 cycles each) (fold (ratio)); higher = stronger signal-on switching upon ATP binding; sequences stand for … in TCGTCGGCAGCGTCAGATGTGTATAAGAGACAGTTTTTTTTTTTTTTTTTTTTTTTTT…TC
Conditions: aptamer strand: ATP DNA aptamer (quencher-CACCTGGGGGAGTATTGCGGAGGAAGG + anchor), 100 nM annealed; ATP concentration: 500 uM; one replicate
Method in brief: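 Values give the fluorescence ratio for each switch-domain sequence, averaged from per-cluster ratios of summed target-cycle to summed buffer-cycle Cy3 intensity. The Cy3-labelled switching-strand clusters sat on a modified Illumina MiSeq flow-cell, were annealed to 100 nM quencher-labelled ATP aptamer, and were imaged in selection buffer, then after 15 min with 500 uM ATP at 22 °C. Five cycles ran with NaOH stripping and re-annealing between them, and clusters outside 100-1000 RFU were excluded.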
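Further: ATP exposure 15 min at 22 °C before imaging.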

| Sequence | switch fluorescence ratio |
| --- | --- |
| CGTTCGTGG | 1.02 |
| TAGATGCGCT | 0.928 |
| ACATGGGTGT | 1.02 |
| TTTAGCGGCG | 0.96 |
| TATCAGACGG | 0.969 |
| GGCTTGCCCA | 1.01 |
| TAATGCAGTA | 1.04 |
| AGATCTCAGC | 1.02 |
| GTCGACATA | 1.03 |
| GCTTCTATCA | 1.01 |
| AGTCCTCGCA | 2.88 |
| ACTGGAGTA | 1.02 |
| ATCTAAGTTT | 0.994 |
| AAGCTGGGTA | 0.984 |
| ACGTTTGAAC | 1.05 |
| GAGCTAGGTT | 1.04 |
| CATGTTCAAA | 0.96 |
| AGGTCGATAT | 0.972 |
| ATACTATAAT | 0.99 |
| TGAATAGGTG | 1.18 |
| CGGTAGGTTG | 1.07 |
| TCCCCCTTGT | 1.03 |
| CTAAGCTAGA | 1.03 |

| Sequence | switch fluorescence ratio |
| --- | --- |
| GTGGGCAGAG | 1.01 |
| CGGGCGTAAT | 1.28 |
| ATACCTCC | 1.51 |
| GTAATAATGC | 1.09 |
| TGAAGCGTGG | 0.989 |
| CGCCAACAGA | 1.03 |
| AATGTTGGGT | 0.982 |
| GCTCCTGTGA | 1.3 |
| CCGTCGTAAC | 3.42 |
| CACGAGTGAA | 0.962 |
| TTTACCAGCA | 1.01 |
| TGGTAGGGAG | 0.988 |
| TTTCCCTTCA | 1.27 |
| ATAGAGCTGT | 0.958 |
| CCACGTGTG | 1.05 |
| ATACGGACAA | 1.34 |
| TCTCTTTACA | 0.97 |
| TTAGGTCCTC | 0.987 |
| AGGCCTTGGG | 1.01 |
| AGAAGGCCAA | 0.959 |
| CGCCATATCC | 1.82 |
| GTGGTATTTC | 0.992 |
| GATCGTCAGC | 1.01 |

| Sequence | switch fluorescence ratio |
| --- | --- |
| GGCAGGTGGG | 1.1 |
| TTGGGGATCC | 0.973 |
| TAGGAAAGAT | 1.04 |
| CAAGTCTTAG | 0.994 |
| CGCACCCCCT | 2.09 |
| TTGGACCGGG | 0.982 |
| TACAAGAGCT | 0.995 |
| GAATCCACTT | 1.12 |
| CAACCGGATG | 1.01 |
| GCAGATGTGC | 1.02 |
| ATCTTTAGAC | 0.988 |
| GGGTTCATGA | 0.987 |
| AGGTGCGTTT | 0.991 |
| TTTAATTTCA | 1.03 |
| AGATGTATCG | 0.98 |
| GCAGTCGAGC | 0.99 |
| CTTATGAGGA | 1.02 |
| CATAAGACAC | 1.06 |
| CAAGGTTTGT | 0.984 |
| AAGAGAATAT | 0.992 |
| TCACGGATCT | 0.993 |
| GGGTGCCTGC | 1 |
| GGTATCGAAT | 0.958 |

| Sequence | switch fluorescence ratio |
| --- | --- |
| GGTAGCTTTG | 0.989 |
| GTGAGTGACT | 1.04 |
| ATATGGTGAG | 0.953 |
| TTGAAAAAGA | 1 |
| TTCAACATTC | 1.16 |
| TCAGGTAGTA | 1.06 |
| CTGTTACATG | 0.972 |
| AATGCACCTG | 1.06 |
| GGGGTCGT | 1.01 |
| CCTGAAGGTA | 1.03 |
| GCGCCCAGGG | 1.06 |
| TGGTCATCGG | 0.929 |
| TATGGGAATC | 1.01 |
| GAGGGACAGC | 1.04 |
| CTTGTTAGAT | 1.02 |
| CTGACGTCTA | 1.24 |
| CGGGGTCTAT | 0.95 |
| TTTCTCCCGA | 1.42 |
| TTAGCCGATC | 1.08 |
| TTGTTTAGA | 0.994 |
| TAGACGTGCT | 1.11 |
| AGTTAAATGG | 1.01 |
| TCGGGAGCAC | 2.52 |

| Sequence | switch fluorescence ratio |
| --- | --- |
| CGGGAAAGTG | 1.02 |
| AGCACTTCGG | 1.01 |
| TGACGGGTTG | 1.05 |
| GGCTACAAAA | 0.952 |
| TAATCGGGG | 0.983 |
| ACAACTTTAG | 0.993 |
| ACTGTCAATT | 1.03 |
| AGAAGAAGCG | 1.02 |
| GTTCGATTGG | 1.03 |
| AGCATTTGGA | 1.02 |
| GATCATATAA | 1.05 |
| GCGTTTGTTT | 0.995 |
| CTATGAACCT | 1.47 |
| AGGGTCTTCC | 1.19 |
| AAGCAGAGAG | 0.959 |
| AATCTACATG | 1.03 |
| AAGACTAA | 0.994 |
| GGGGCGATGG | 0.997 |
| GGCTTTCGAT | 0.955 |
| TGGAGACGCT | 1.01 |
| GAAAGTAAG | 0.986 |
| CGAAGTGTCA | 0.997 |
| TCACGTTACC | 1.67 |

| Sequence | switch fluorescence ratio |
| --- | --- |
| ATTTCCGCGA | 4.15 |
| GGGTTTTGAC | 0.962 |
| GGCGGAGGTC | 1.01 |
| CGCCCGAAGC | 2.57 |
| CAGCACCGG | 1.13 |
| GCGCACTGGT | 1.03 |
| TATATCCGCT | 1.09 |
| GCTAGGTAGG | 0.985 |
| AGGGTATAAT | 0.991 |
| TGGAGAACCG | 0.928 |
| AACCAATACG | 1.57 |
| TTAGACATTG | 1.03 |
| GTGTGGAGCC | 1.01 |
| ATCAAAGCT | 1.05 |
| AAACTCACGG | 1.4 |
| GAATAGTAGC | 0.947 |
| GCTTTATGGA | 1.03 |
| TCTTCTGTTA | 1.03 |
| TGGGTCCGGA | 1.06 |
| AGGCAATGA | 1.4 |
| TCTTCAGCAC | 2.26 |
| TTTGGTTCA | 0.989 |
| GAACAGAAGT | 1.03 |

| Sequence | switch fluorescence ratio |
| --- | --- |
| AAACGAGTAG | 1 |
| TATACAATAG | 1.05 |
| TAACTTCTG | 1.06 |
| ACAGAATAAC | 1.05 |
| TAAGGCAGTG | 0.987 |
| TCATTGCTAG | 0.982 |
| ATATACTTAA | 1.04 |
| GATAACATGC | 0.993 |
| ACCATTGGTC | 1.02 |
| GATGAAACCA | 1.05 |
| TCGTTTTATC | 1.03 |
| ACACTTGGCG | 1.05 |
| ACAAATTTAA | 1.05 |
| GAAGTTCAAT | 1.05 |
| TTGCATCACG | 1.06 |
| TCGGTATAAT | 1.22 |
| ACGGAATCTT | 1.08 |
| CCAAGGCTGC | 1.6 |
| CCTTTTAGTA | 1.01 |
